# Measurements as given in the supplement of paper PMC8728848.
# The list shows a part of the results.
# How the values were obtained:
# Experiment in all cases: glycan array binding signal (z-score within array); higher = stronger binding
# Conditions in all cases: glycan notation: IUPAC condensed, linker removed
# [1] = target: Gal(b1-3)GlcNAc(b1-2)Man(a1-3)[Gal(b1-3)GlcNAc(b1-2)Man(a1-6)]Man(b1-4)GlcNAc(b1-4)GlcNAc
# Procedure, shortened: (§1)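 Glycan array data came from 3228 arrays in the Consortium for Functional Glycomics database, and only arrays with an available protein sequence were kept. Glycan names were put into IUPAC-condensed notation, and columns mapping to the same glycan were averaged. The binding signal is a within-array Z-score, averaged across arrays of one protein sequence run at different concentrations or buffers and across linkers. A negative Z-score can be read as non-binding.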
# [2] = target: Gal(b1-3)GlcNAc(b1-2)Man(a1-3)[Gal(b1-3)GlcNAc(b1-2)Man(a1-6)]Man(b1-4)GlcNAc(b1-4)[Fuc(a1-6)]GlcNAc
# Procedure, shortened: as §1
# [3] = target: Gal(b1-3)GlcNAc(b1-2)Man(a1-3)[GlcNAc(b1-4)][Gal(b1-3)GlcNAc(b1-2)Man(a1-6)]Man(b1-4)GlcNAc(b1-4)GlcNAc
# Procedure, shortened: as §1
# [4] = target: Gal(b1-3)GlcNAc(b1-2)[Gal(b1-3)GlcNAc(b1-6)]Man(a1-6)[Gal(b1-3)GlcNAc(b1-2)Man(a1-3)]Man(b1-4)GlcNAc(b1-4)GlcNAc
# Procedure, shortened: as §1
# [5] = target: Gal(b1-3)GlcNAc(b1-3)Gal(b1-3)GlcNAc
# Procedure, shortened: as §1
# [6] = target: Gal(b1-3)GlcNAc(b1-3)Gal(b1-4)Glc
# Procedure, shortened: as §1
# [7] = target: Gal(b1-3)GlcNAc(b1-3)Gal(b1-4)GlcNAc
# Procedure, shortened: as §1
# [8] = target: Gal(b1-3)GlcNAc(b1-3)Gal(b1-4)GlcNAc(b1-2)Man(a1-3)[Gal(b1-3)GlcNAc(b1-3)Gal(b1-4)GlcNAc(b1-2)Man(a1-6)]Man(b1-4)GlcNAc(b1-4)GlcNAc
# Procedure, shortened: as §1
# [9] = target: Gal(b1-3)GlcNAc(b1-3)Gal(b1-4)GlcNAc(b1-2)[Gal(b1-3)GlcNAc(b1-3)Gal(b1-4)GlcNAc(b1-6)]Man(a1-6)[Gal(b1-3)GlcNAc(b1-3)Gal(b1-4)GlcNAc(b1-2)Man(a1-3)]Man(b1-4)GlcNAc(b1-4)[Fuc(a1-6)]GlcNAc
# Procedure, shortened: as §1
# [10] = target: Gal(b1-3)GlcNAc(b1-3)Gal(b1-4)GlcNAc(b1-3)Gal(b1-4)GlcNAc(b1-2)[Gal(b1-3)GlcNAc(b1-3)Gal(b1-4)GlcNAc(b1-3)Gal(b1-4)GlcNAc(b1-6)]Man(a1-6)[Gal(b1-3)GlcNAc(b1-3)Gal(b1-4)GlcNAc(b1-3)Gal(b1-4)GlcNAc(b1-2)Man(a1-3)]Man(b1-4)GlcNAc(b1-4)[Fuc(a1-6)]GlcNAc
# Procedure, shortened: as §1
# [11] = target: Gal(b1-3)GlcNAc(b1-3)Gal(b1-4)GlcNAc(b1-6)[Gal(b1-3)GlcNAc(b1-3)]Gal(b1-4)Glc
# Procedure, shortened: as §1
# [12] = target: Gal(b1-3)GlcNAc(b1-3)Gal(b1-4)[Fuc(a1-3)]GlcNAc
# Procedure, shortened: as §1
# [13] = target: Gal(b1-3)GlcNAc(b1-3)Gal(b1-4)[Fuc(a1-3)]GlcNAc(b1-6)[Gal(b1-3)GlcNAc(b1-3)]Gal(b1-4)Glc
# Procedure, shortened: as §1
# [14] = target: Gal(b1-3)GlcNAc(b1-3)GalNAc
# Procedure, shortened: as §1
# [15] = target: Gal(b1-3)GlcNAc(b1-6)Gal(b1-4)GlcNAc
# Procedure, shortened: as §1
# [16] = target: Gal(b1-3)GlcNAc(b1-6)GalNAc
# Procedure, shortened: as §1
# [17] = target: Gal(b1-3)GlcNAc(b1-6)[Gal(b1-3)]GalNAc
# Procedure, shortened: as §1
# Gal(b1-3)GlcNAc6S = target: Gal(b1-3)GlcNAc6S
# Procedure, shortened: as §1
# [18] = target: Gal(b1-3)[Fuc(a1-4)]GlcNAc
# Procedure, shortened: as §1
# [19] = target: Gal(b1-3)[Fuc(a1-4)]GlcNAc(b1-2)Man
# Procedure, shortened: as §1
# [20] = target: Gal(b1-3)[Fuc(a1-4)]GlcNAc(b1-2)Man(a1-3)[Gal(b1-3)[Fuc(a1-4)]GlcNAc(b1-2)Man(a1-6)]Man(b1-4)GlcNAc(b1-4)[Fuc(a1-6)]GlcNAc
# Procedure, shortened: as §1
# [21] = target: Gal(b1-3)[Fuc(a1-4)]GlcNAc(b1-3)Gal(b1-3)[Fuc(a1-4)]GlcNAc
# Procedure, shortened: as §1
# [22] = target: Gal(b1-3)[Fuc(a1-4)]GlcNAc(b1-3)Gal(b1-4)[Fuc(a1-3)]GlcNAc
# Procedure, shortened: as §1
# [23] = target: Gal(b1-3)[Fuc(a1-4)]GlcNAc(b1-6)GalNAc
# Procedure, shortened: as §1
# [24] = target: Gal(b1-3)[GlcNAc(b1-6)]GalNAc
# Procedure, shortened: as §1
# [25] = target: Gal(b1-3)[Neu5Ac(a2-6)]GalNAc
# Procedure, shortened: as §1
# [26] = target: Gal(b1-3)[Neu5Ac(a2-6)]GlcNAc(b1-4)Gal(b1-4)Glc
# Procedure, shortened: as §1
# [27] = target: Gal(b1-3)[Neu5Ac(b2-6)]GalNAc
# Procedure, shortened: as §1
# Gal(b1-4)Gal = target: Gal(b1-4)Gal
# Procedure, shortened: as §1
# [28] = target: Gal(b1-4)GalNAc(a1-3)[Fuc(a1-2)]Gal(b1-4)GlcNAc
# Procedure, shortened: as §1
# [29] = target: Gal(b1-4)GalNAc(b1-3)[Fuc(a1-2)]Gal(b1-4)GlcNAc
# Procedure, shortened: as §1
# Gal(b1-4)Glc = target: Gal(b1-4)Glc
# Procedure, shortened: as §1
# Gal(b1-4)Glc6S = target: Gal(b1-4)Glc6S
# Procedure, shortened: as §1
# Gal(b1-4)GlcNAc = target: Gal(b1-4)GlcNAc
# Procedure, shortened: as §1
# [30] = target: Gal(b1-4)GlcNAc(a1-6)Gal(b1-4)GlcNAc
# Procedure, shortened: as §1
# Gal(b1-4)GlcNAc(b1-2)Man = target: Gal(b1-4)GlcNAc(b1-2)Man
# Procedure, shortened: as §1
# [31] = target: Gal(b1-4)GlcNAc(b1-2)Man(a1-3)Man(b1-4)GlcNAc(b1-4)GlcNAc
# Procedure, shortened: as §1
binder,measurement,setting,value
DC-ASGPR Long (Homo sapiens) (protein) MTRTYENFQYLENKVKVQGFKNGPLPLQSLLQRLRSGPCHLLLSLGLGLLLLVIICVVGFQNSKFQRDLVTLRTDFSNFTSNTVAEIQALTSQGSSLEETIASLKAEVEGFKQERQAGVSELQEHTTQKAHLGHCPHCPSVCVPVHSEMLLRVQQLVQDLKKLTCQVATLNNNASTEGTCCPVNWVEHQDSCYWFSHSGMSWAEAEKYCQLKNAHLVVINSREEQNFVQKYLGSAYTWMGLSDPEGAWKWVDGTDYATGFQNWKPGQPDDWQGHGLGGGEDCAHFHPDGGWNDDVCQRPYHWVCEAGLGQTSQESH,glycan array binding signal (z-score),[1],-0.257
same,glycan array binding signal (z-score),[2],-0.41
same,glycan array binding signal (z-score),[3],-0.269
same,glycan array binding signal (z-score),[4],-0.336
same,glycan array binding signal (z-score),[5],-0.372
same,glycan array binding signal (z-score),[6],-0.067
same,glycan array binding signal (z-score),[7],0.888
same,glycan array binding signal (z-score),[8],0.05
same,glycan array binding signal (z-score),[9],0.579
same,glycan array binding signal (z-score),[10],0.397
same,glycan array binding signal (z-score),[11],-0.123
same,glycan array binding signal (z-score),[12],-0.285
same,glycan array binding signal (z-score),[13],-0.888
same,glycan array binding signal (z-score),[14],-0.262
same,glycan array binding signal (z-score),[15],-0.371
same,glycan array binding signal (z-score),[16],5.68
same,glycan array binding signal (z-score),[17],-0.373
same,glycan array binding signal (z-score),Gal(b1-3)GlcNAc6S,-0.521
same,glycan array binding signal (z-score),[18],-0.18
same,glycan array binding signal (z-score),[19],-0.238
same,glycan array binding signal (z-score),[20],-0.252
same,glycan array binding signal (z-score),[21],0.122
same,glycan array binding signal (z-score),[22],-0.126
same,glycan array binding signal (z-score),[23],1.47
same,glycan array binding signal (z-score),[24],-0.509
same,glycan array binding signal (z-score),[25],-0.084
same,glycan array binding signal (z-score),[26],-0.32
same,glycan array binding signal (z-score),[27],0.101
same,glycan array binding signal (z-score),Gal(b1-4)Gal,-0.034
same,glycan array binding signal (z-score),[28],-0.345
same,glycan array binding signal (z-score),[29],-0.39
same,glycan array binding signal (z-score),Gal(b1-4)Glc,-0.188
same,glycan array binding signal (z-score),Gal(b1-4)Glc6S,-0.258
same,glycan array binding signal (z-score),Gal(b1-4)GlcNAc,-0.154
same,glycan array binding signal (z-score),[30],0.015
same,glycan array binding signal (z-score),Gal(b1-4)GlcNAc(b1-2)Man,-0.23
same,glycan array binding signal (z-score),[31],-0.201
